The list shows a part of the results. Rule as the data show it: active = 3.2 or more and inactive = the rest. Most of these values are background signal.
Biological target: SHP2 C-SH2 domain E139D
Assay: enrichment score (SH2-bound / input frequency) (ratio); bacterial display of known human phosphotyrosine sites (pTyr-Var adds point mutants) read by sequencing; higher = stronger binding; tyrosines were phosphorylated by kinases first
Conditions: peptide library: pTyr-Var
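Also: displayed peptides selected on beads carrying the immobilized SH2 domain, with library peptides lacking any tyrosine serving as negative controls.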

Enrichment score, inactive:
ILKPDYQPLAI [HYDIN_Y1072] 1.33
KKILCYIQGGS [HYDIN_Y4610_N4606K] 0.957
NNDLCYWVPEL [IARS1_Y434] 1.03
EIEFLYNENTV [IARS1_Y680] 0.764
EIEFLYNENMV [IARS1_Y680_T684M] 1.12
TFYQMYDKGLV [IARS2_Y231] 0.969
TSYQMYDKGLV [IARS2_Y231_F227S] 0.693
TSFQMYDKGLV [IARS2_Y231_F227S_YF] 0.741
AKVKPYVNGTS [IBTK_Y1064] 0.979
QRMGTYGVRAA [ICAM2_Y260] 0.587
REESTYLPLTS [ICAM3_Y527] 0.563
IGCHAYGDQYR [IDH1_Y135_R132C] 1.02
IGHHAYGDQYR [IDH1_Y135_R132H] 2.32
IGHHAYGDQFR [IDH1_Y135_R132H_YF] 1.68
IGLHAYGDQYR [IDH1_Y135_R132L] 0.816
IGLHAYGDQFR [IDH1_Y135_R132L_YF] 0.874
IGSHAYGDQYR [IDH1_Y135_R132S] 0.702
IGSHAYGDQFR [IDH1_Y135_R132S_YF] 0.733
IGRHAYGDQFR [IDH1_Y135_YF] 0.92

Biological target: SHP2 C-SH2 domain wild-type
Assay: as above
Conditions: peptide library: pTyr-Var

Enrichment score, inactive:
ILKPDYQPLAI [HYDIN_Y1072] 0.988
KKILCYIQGGS [HYDIN_Y4610_N4606K] 1.19
NNDLCYWVPEL [IARS1_Y434] 1
EIEFLYNENTV [IARS1_Y680] 0.745
EIEFLYNENMV [IARS1_Y680_T684M] 0.952
TFYQMYDKGLV [IARS2_Y231] 1.04
TSYQMYDKGLV [IARS2_Y231_F227S] 0.722
TSFQMYDKGLV [IARS2_Y231_F227S_YF] 0.52
AKVKPYVNGTS [IBTK_Y1064] 1.15
QRMGTYGVRAA [ICAM2_Y260] 0.638
REESTYLPLTS [ICAM3_Y527] 0.803
IGCHAYGDQYR [IDH1_Y135_R132C] 1.42
IGHHAYGDQYR [IDH1_Y135_R132H] 1.84
IGHHAYGDQFR [IDH1_Y135_R132H_YF] 1.42
IGLHAYGDQYR [IDH1_Y135_R132L] 0.891
IGLHAYGDQFR [IDH1_Y135_R132L_YF] 0.857
IGSHAYGDQYR [IDH1_Y135_R132S] 0.675
IGSHAYGDQFR [IDH1_Y135_R132S_YF] 0.64
IGRHAYGDQFR [IDH1_Y135_YF] 0.791

Biological target: SHP2 N-SH2 domain L43F
Assay: as above
Conditions: peptide library: pTyr-Var

Enrichment score, inactive:
ILKPDYQPLAI [HYDIN_Y1072] 1.12
KKILCYIQGGS [HYDIN_Y4610_N4606K] 0.912
NNDLCYWVPEL [IARS1_Y434] 0.899
EIEFLYNENTV [IARS1_Y680] 0.688
EIEFLYNENMV [IARS1_Y680_T684M] 0.651
TFYQMYDKGLV [IARS2_Y231] 0.982
TSYQMYDKGLV [IARS2_Y231_F227S] 0.81
TSFQMYDKGLV [IARS2_Y231_F227S_YF] 0.842
AKVKPYVNGTS [IBTK_Y1064] 0.879
QRMGTYGVRAA [ICAM2_Y260] 0.663
REESTYLPLTS [ICAM3_Y527] 0.783
IGCHAYGDQYR [IDH1_Y135_R132C] 0.921
IGHHAYGDQYR [IDH1_Y135_R132H] 1.91
IGHHAYGDQFR [IDH1_Y135_R132H_YF] 1.42
IGLHAYGDQYR [IDH1_Y135_R132L] 0.847
IGLHAYGDQFR [IDH1_Y135_R132L_YF] 0.913
IGSHAYGDQYR [IDH1_Y135_R132S] 0.655
IGSHAYGDQFR [IDH1_Y135_R132S_YF] 0.828
IGRHAYGDQFR [IDH1_Y135_YF] 0.955

Biological target: SHP2 N-SH2 domain T42A
Assay: as above
Conditions: peptide library: pTyr-Var

Enrichment score, inactive:
ILKPDYQPLAI [HYDIN_Y1072] 0.721
KKILCYIQGGS [HYDIN_Y4610_N4606K] 0.961
NNDLCYWVPEL [IARS1_Y434] 0.877
EIEFLYNENTV [IARS1_Y680] 0.666
EIEFLYNENMV [IARS1_Y680_T684M] 0.754
TFYQMYDKGLV [IARS2_Y231] 0.92
TSYQMYDKGLV [IARS2_Y231_F227S] 0.926
TSFQMYDKGLV [IARS2_Y231_F227S_YF] 0.508
AKVKPYVNGTS [IBTK_Y1064] 1.06
QRMGTYGVRAA [ICAM2_Y260] 0.539
REESTYLPLTS [ICAM3_Y527] 0.839
IGCHAYGDQYR [IDH1_Y135_R132C] 1.01
IGHHAYGDQYR [IDH1_Y135_R132H] 1.9
IGHHAYGDQFR [IDH1_Y135_R132H_YF] 1.5
IGLHAYGDQYR [IDH1_Y135_R132L] 0.816
IGLHAYGDQFR [IDH1_Y135_R132L_YF] 0.77
IGSHAYGDQYR [IDH1_Y135_R132S] 0.548
IGSHAYGDQFR [IDH1_Y135_R132S_YF] 0.63
IGRHAYGDQFR [IDH1_Y135_YF] 0.766

Biological target: SHP2 N-SH2 domain T52S
Assay: as above
Conditions: peptide library: pTyr-Var

Enrichment score, inactive:
ILKPDYQPLAI [HYDIN_Y1072] 1.02
KKILCYIQGGS [HYDIN_Y4610_N4606K] 0.824
NNDLCYWVPEL [IARS1_Y434] 0.849
EIEFLYNENTV [IARS1_Y680] 0.801
EIEFLYNENMV [IARS1_Y680_T684M] 0.733
TFYQMYDKGLV [IARS2_Y231] 1.06
TSYQMYDKGLV [IARS2_Y231_F227S] 0.752
TSFQMYDKGLV [IARS2_Y231_F227S_YF] 0.607
AKVKPYVNGTS [IBTK_Y1064] 0.8
QRMGTYGVRAA [ICAM2_Y260] 0.575
REESTYLPLTS [ICAM3_Y527] 0.603
IGCHAYGDQYR [IDH1_Y135_R132C] 0.923
IGHHAYGDQYR [IDH1_Y135_R132H] 1.85
IGHHAYGDQFR [IDH1_Y135_R132H_YF] 1.69
IGLHAYGDQYR [IDH1_Y135_R132L] 0.792
IGLHAYGDQFR [IDH1_Y135_R132L_YF] 0.838
IGSHAYGDQYR [IDH1_Y135_R132S] 0.598
IGSHAYGDQFR [IDH1_Y135_R132S_YF] 0.773
IGRHAYGDQFR [IDH1_Y135_YF] 0.941

Biological target: SHP2 N-SH2 domain wild-type
Assay: as above
Conditions: peptide library: pTyr-Var

Enrichment score, inactive:
ILKPDYQPLAI [HYDIN_Y1072] 1.14
KKILCYIQGGS [HYDIN_Y4610_N4606K] 1.13
NNDLCYWVPEL [IARS1_Y434] 1.11
EIEFLYNENTV [IARS1_Y680] 0.594
EIEFLYNENMV [IARS1_Y680_T684M] 0.765
TFYQMYDKGLV [IARS2_Y231] 0.938
TSYQMYDKGLV [IARS2_Y231_F227S] 0.718
TSFQMYDKGLV [IARS2_Y231_F227S_YF] 0.603
AKVKPYVNGTS [IBTK_Y1064] 0.831
QRMGTYGVRAA [ICAM2_Y260] 0.78
REESTYLPLTS [ICAM3_Y527] 0.789
IGCHAYGDQYR [IDH1_Y135_R132C] 1.46
IGHHAYGDQYR [IDH1_Y135_R132H] 1.61
IGHHAYGDQFR [IDH1_Y135_R132H_YF] 1.58
IGLHAYGDQYR [IDH1_Y135_R132L] 0.909
IGLHAYGDQFR [IDH1_Y135_R132L_YF] 1.14
IGSHAYGDQYR [IDH1_Y135_R132S] 0.757
IGSHAYGDQFR [IDH1_Y135_R132S_YF] 0.794
IGRHAYGDQFR [IDH1_Y135_YF] 1.19
